This is one part of the list. These are noisy estimates, calculated here from bound and input reads.

The source of these data is the BET-seq Pho4 binding data (Le et al. 2018).

The target in this experiment is T1, Pho4 (S. cerevisiae) (UniProt P07270).
T1 sequence: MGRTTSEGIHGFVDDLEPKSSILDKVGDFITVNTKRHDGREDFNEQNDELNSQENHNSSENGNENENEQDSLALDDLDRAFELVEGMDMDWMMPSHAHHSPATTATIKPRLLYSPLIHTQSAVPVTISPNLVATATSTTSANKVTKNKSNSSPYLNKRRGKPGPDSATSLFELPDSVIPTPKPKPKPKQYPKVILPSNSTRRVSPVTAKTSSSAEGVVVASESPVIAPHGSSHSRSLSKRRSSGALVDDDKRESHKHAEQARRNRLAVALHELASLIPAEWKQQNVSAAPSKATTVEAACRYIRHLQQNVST
The experiment is described as follows: relative binding free energy (BET-seq); higher = weaker binding. Conditions: reference: library average.
For the sequence TTGAGCACGTGTAAAT, the “relative binding free energy” value was -0.06 kcal/mol.

Take GGATTCACGTGTGATT: the “relative binding free energy” value amounted to 0.47 kcal/mol.

As to GTGTGCACGTGCGTGG, the “relative binding free energy” value amounted to 0 kcal/mol.

In the case of TTGTTCACGTGGCTGT, the “relative binding free energy” value was 0.27 kcal/mol.

For the sequence TAGAGCACGTGGGATT, the “relative binding free energy” value was -0.15 kcal/mol.

For the sequence GTACTCACGTGGGTTA, the “relative binding free energy” value turned out to be 0.09 kcal/mol.

As to GGTGACACGTGGAGGA, the “relative binding free energy” value amounted to 0.02 kcal/mol.

In the case of TGTATCACGTGACCGG, the “relative binding free energy” value was determined as 0.18 kcal/mol.

On to TGGATCACGTGCTGAG, for which the “relative binding free energy” value came to 0.1 kcal/mol.

For AAGGTCACGTGGGTGA, the “relative binding free energy” value is -0.08 kcal/mol.

With GGCTTCACGTGATTTT, the “relative binding free energy” value was 0.47 kcal/mol.

Take ATTAGCACGTGTGTAG: the “relative binding free energy” value worked out at 0 kcal/mol.

Turning to TTACGCACGTGGTAGG, the “relative binding free energy” value was -0.32 kcal/mol.

For the sequence TGATGCACGTGTTATT, the “relative binding free energy” value came to 0.03 kcal/mol.

Regarding GTGGTCACGTGTTTAG, the “relative binding free energy” value amounted to 0.17 kcal/mol.

For the sequence AGATACACGTGTTTAT, the “relative binding free energy” value is -0.02 kcal/mol.

Consider TGGAGCACGTGGTTGG, for which the “relative binding free energy” value is -0.02 kcal/mol.

Consider TTCTGCACGTGCGTGT, for which the “relative binding free energy” value is -0.14 kcal/mol.

As for ATGTGCACGTGGTGTT, the “relative binding free energy” value is -0.13 kcal/mol.

With AGTGCCACGTGAGGGG, the “relative binding free energy” value is -0.06 kcal/mol.

Turning to CGTGGCACGTGGACAG, the “relative binding free energy” value is -0.13 kcal/mol.

With CTGTTCACGTGTAGTT, the “relative binding free energy” value was found to be 0.2 kcal/mol.

Consider TAGCGCACGTGTGGAA, for which the “relative binding free energy” value is -0.02 kcal/mol.

For TGTTGCACGTGATATA, the “relative binding free energy” value is -0.02 kcal/mol.

Take GGTGGCACGTGATATC: the “relative binding free energy” value turned out to be 0.03 kcal/mol.

Turning to GGGAGCACGTGGGATG, the “relative binding free energy” value is -0.13 kcal/mol.

Take ATTTTCACGTGCCTTG: the “relative binding free energy” value turned out to be 0.18 kcal/mol.

Take TATTTCACGTGGTTAA: the “relative binding free energy” value is 0.25 kcal/mol.

On to TGGTGCACGTGCGGGT, for which the “relative binding free energy” value is -0.06 kcal/mol.

Turning to GTTTCCACGTGGGGTA, the “relative binding free energy” value was -0.08 kcal/mol.

With GCGGTCACGTGGAGGT, the “relative binding free energy” value was 0.11 kcal/mol.

As for AGGGACACGTGAGGCA, the “relative binding free energy” value turned out to be 0.16 kcal/mol.

Regarding TGGATCACGTGTCGTT, the “relative binding free energy” value came to 0.07 kcal/mol.

Take TAGGACACGTGGTGTT: the “relative binding free energy” value was -0.09 kcal/mol.

TATTGCACGTGCATGT: the “relative binding free energy” value was -0.23 kcal/mol.

As to GATAACACGTGGTGGA, the “relative binding free energy” value worked out at 0 kcal/mol.

Consider TATTTCACGTGTAGGG, for which the “relative binding free energy” value was 0.29 kcal/mol.

As for TTACGCACGTGAGTTT, the “relative binding free energy” value amounted to 0.13 kcal/mol.

With AGACGCACGTGGGAGG, the “relative binding free energy” value is -0.18 kcal/mol.

On to GGGAACACGTGCGTGT, for which the “relative binding free energy” value was -0.1 kcal/mol.

On to GGGCTCACGTGGATGT, for which the “relative binding free energy” value is 0.35 kcal/mol.

In the case of TTGGACACGTGTGATA, the “relative binding free energy” value turned out to be 0.09 kcal/mol.

On to TGTCGCACGTGTTTTG, for which the “relative binding free energy” value is -0.08 kcal/mol.

For TGGGTCACGTGGTATG, the “relative binding free energy” value came to 0.09 kcal/mol.

In the case of TGATTCACGTGCTGGC, the “relative binding free energy” value was found to be 0.28 kcal/mol.

On to GTGATCACGTGATGGC, for which the “relative binding free energy” value came to 0.29 kcal/mol.

Regarding CGCTTCACGTGTGTGA, the “relative binding free energy” value was 0.33 kcal/mol.

On to ACGTGCACGTGGTGGT, for which the “relative binding free energy” value is -0.2 kcal/mol.

TCTTACACGTGTATTA: the “relative binding free energy” value worked out at 0.1 kcal/mol.

As for TTTGGCACGTGGCTGA, the “relative binding free energy” value is -0.05 kcal/mol.

On to ATAGGCACGTGAGGCA, for which the “relative binding free energy” value is 0 kcal/mol.

TTGAGCACGTGTCGGA: the “relative binding free energy” value was 0.02 kcal/mol.

Consider GTGGACACGTGGGAGG, for which the “relative binding free energy” value is 0.09 kcal/mol.

ATTGGCACGTGCATCT: the “relative binding free energy” value was -0.14 kcal/mol.

In the case of GGGTTCACGTGGGTTC, the “relative binding free energy” value was determined as 0.33 kcal/mol.

As to TATGGCACGTGGGCAG, the “relative binding free energy” value is -0.33 kcal/mol.

As for TGGTGCACGTGGTGCT, the “relative binding free energy” value is -0.08 kcal/mol.

With TTGTACACGTGAAAGG, the “relative binding free energy” value came out at 0.38 kcal/mol.

On to GTAAGCACGTGGGGTA, for which the “relative binding free energy” value is -0.15 kcal/mol.

Regarding AATTACACGTGTGTAA, the “relative binding free energy” value was -0.03 kcal/mol.

Regarding GATCGCACGTGGTGGG, the “relative binding free energy” value was -0.05 kcal/mol.

For ACAAGCACGTGTGGTG, the “relative binding free energy” value is -0.13 kcal/mol.

With ATATGCACGTGGGTAA, the “relative binding free energy” value was -0.13 kcal/mol.

Take AGTCGCACGTGTTGGG: the “relative binding free energy” value is -0.09 kcal/mol.

With CGTTTCACGTGATAAT, the “relative binding free energy” value stood at 0.29 kcal/mol.

For TTTGTCACGTGAAGAG, the “relative binding free energy” value stood at 0.21 kcal/mol.

As to AGTATCACGTGTTTTT, the “relative binding free energy” value was determined as 0.14 kcal/mol.

For TCGAGCACGTGTAGTA, the “relative binding free energy” value was 0.03 kcal/mol.

Take AGGTGCACGTGTCATA: the “relative binding free energy” value is -0.11 kcal/mol.

In the case of AAAAGCACGTGTGGAT, the “relative binding free energy” value was found to be 0.01 kcal/mol.

In the case of AGTAACACGTGTGAGT, the “relative binding free energy” value came to 0.04 kcal/mol.

Turning to GTAGTCACGTGGCGAG, the “relative binding free energy” value is 0.14 kcal/mol.

For the sequence GAGGACACGTGGGGGG, the “relative binding free energy” value was -0.02 kcal/mol.

In the case of GTTATCACGTGTCTAG, the “relative binding free energy” value is 0.22 kcal/mol.

On to AGAGTCACGTGGTTGA, for which the “relative binding free energy” value stood at 0.06 kcal/mol.

Turning to TTCGGCACGTGGGGCG, the “relative binding free energy” value is -0.13 kcal/mol.

Consider TGCTTCACGTGTGCGG, for which the “relative binding free energy” value came out at 0.1 kcal/mol.

Regarding GTGGCCACGTGGAGAG, the “relative binding free energy” value was 0.1 kcal/mol.

Regarding AGACGCACGTGTAGGT, the “relative binding free energy” value is -0.04 kcal/mol.

Regarding GTCTTCACGTGTTAGA, the “relative binding free energy” value was found to be 0.24 kcal/mol.

Regarding TTATCCACGTGTAGGT, the “relative binding free energy” value is 0.03 kcal/mol.

For the sequence AGGGACACGTGAGGCT, the “relative binding free energy” value stood at 0.07 kcal/mol.

Take TGTTGCACGTGGCTAT: the “relative binding free energy” value is -0.02 kcal/mol.

As to ATGGGCACGTGTGAGG, the “relative binding free energy” value turned out to be 0.04 kcal/mol.

As for TTTGACACGTGGCGGG, the “relative binding free energy” value was -0.13 kcal/mol.

Regarding TTTCTCACGTGGTAAA, the “relative binding free energy” value turned out to be 0.28 kcal/mol.

As to AGCGTCACGTGTTGCG, the “relative binding free energy” value was found to be 0.08 kcal/mol.

Regarding CGATGCACGTGGGGAG, the “relative binding free energy” value was -0.14 kcal/mol.

In the case of TTCTGCACGTGTATGT, the “relative binding free energy” value was -0.13 kcal/mol.

As to AGTAACACGTGAGGTG, the “relative binding free energy” value stood at 0.23 kcal/mol.

For the sequence ACGGTCACGTGGCGTT, the “relative binding free energy” value is 0.07 kcal/mol.

Regarding AATAGCACGTGAATTT, the “relative binding free energy” value came to 0.3 kcal/mol.

As to AGTGGCACGTGGATCG, the “relative binding free energy” value is -0.18 kcal/mol.

On to GGGTACACGTGAGAGT, for which the “relative binding free energy” value was 0.41 kcal/mol.

As to GTTATCACGTGTTAGT, the “relative binding free energy” value came to 0.17 kcal/mol.

Regarding ACGGGCACGTGAGTTT, the “relative binding free energy” value came to 0.12 kcal/mol.

For the sequence ATGTTCACGTGCATGC, the “relative binding free energy” value amounted to 0.27 kcal/mol.

Turning to AGACACACGTGTTGGT, the “relative binding free energy” value was 0.05 kcal/mol.

ATTTACACGTGACAGG: the “relative binding free energy” value is 0.24 kcal/mol.

Regarding GGGGGCACGTGCGCCG, the “relative binding free energy” value was -0.24 kcal/mol.

Turning to GGGGGCACGTGGCCTT, the “relative binding free energy” value is -0.22 kcal/mol.

For GGTCGCACGTGGGTGC, the “relative binding free energy” value was -0.15 kcal/mol.

Consider AGGGGCACGTGATAGA, for which the “relative binding free energy” value was -0.1 kcal/mol.

Take TGAGCCACGTGGTTGG: the “relative binding free energy” value is -0.16 kcal/mol.

Regarding AAGGGCACGTGGATGC, the “relative binding free energy” value was -0.15 kcal/mol.

As to CTGATCACGTGCTTGG, the “relative binding free energy” value turned out to be 0.19 kcal/mol.

Regarding ATAGGCACGTGATTTA, the “relative binding free energy” value was -0.18 kcal/mol.

As to GTTAACACGTGATGTT, the “relative binding free energy” value was 0.13 kcal/mol.

As for AGTGGCACGTGTTCTG, the “relative binding free energy” value is -0.14 kcal/mol.

Turning to GATCGCACGTGTGTGA, the “relative binding free energy” value was determined as 0.23 kcal/mol.

Consider AGTGTCACGTGCGATT, for which the “relative binding free energy” value was -0.06 kcal/mol.

Turning to TTTCTCACGTGAAGTG, the “relative binding free energy” value was found to be 0.31 kcal/mol.

For AAAGGCACGTGTTGTT, the “relative binding free energy” value was -0.13 kcal/mol.

Turning to TGTTCCACGTGGTGTG, the “relative binding free energy” value was -0.07 kcal/mol.

With GGCGGCACGTGTTGAG, the “relative binding free energy” value is -0.09 kcal/mol.
